# Source: PubChem BioAssay AID686979 (National Center for Advancing Translational Sciences (NCATS), 2013)
# Where “and” joins values, the source holds several entries; their conditions need not be identical. Identical values can stand only once. Among all 420,000 compounds or so, about 50,000 (12%) were called active. The shares of active, inactive and inconclusive entries below differ from those in the screen. Calls come from the whole dose curve; as a rule, active = well fitted inhibition curve with a large enough effect; inconclusive = small, poorly fitted or top-dose-only effect; inactive = flat fitted curve, though single readings scatter. Potencies of inconclusive entries are doubtful fits and often do not repeat.
# Assay: qHTS for Inhibitors of human tyrosyl-DNA phosphodiesterase 1 (TDP1): qHTS in cells in presence of CPT; note: nearly all actives have a fitted effect of over 55% in size
# Conditions: chicken DT40 Tdp1-/-;hTDP1 cells + 20 nM CPT, ATP luminescence, 48 h; activity change, negative = growth inhibition: at 46.2 µM (top of the series)
# Outline: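 Chicken DT40 Tdp1-/- cells complemented with human TDP1, 400 cells/well, exposed to compounds plus 20 nM camptothecin for at least 48 h at 37 C; viability read as ATP content by CellTiter-Glo luminescence.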
# % is set by controls: 0 for no effect and ±100 for the full control effect; potency is the fitted concentration of half-maximal effect; tags give direction and shape of the fitted curve.
SMILES,Potency,"activity change, negative = growth inhibition"
Cc1cccc(NC(=O)c2ccc(OCc3c(C)noc3C)cc2)c1C,"inconclusive: 23.1 µM [inhibitor, single point]",
CC(=O)c1ccc(NC(=O)CSc2c(C(C)C)cnc3c2c(=O)n(C)c(=O)n3C)cc1,"inconclusive: 29.1 µM [inhibitor, single point]",
CSc1ccc(CN2CCC(C)(Oc3cccc(Cl)c3)C2)cc1 (stereo not drawn),"inconclusive: 20.6 µM [inhibitor, partial curve]",
O=C(Nc1cccc(C(=O)O)c1)/C(=C\c1ccccc1)NC(=O)c1cccc2ccccc12,inactive,
O=C(O)c1ccc(C(=O)Nc2cccc(NC(=O)C3CCCO3)c2)cc1 (stereo not drawn),,inconclusive: -30.5% [inhibitor]
Clc1ccccn1,inactive,
CCOC(=O)Nc1nc(C)c(C(=O)c2ccc(Cl)cc2)s1,"inconclusive: 29.1 µM [inhibitor, single point]",
Cc1ccc(C(=O)Nc2sc3c(c2C(=O)O)CCCCC3)o1,"inconclusive: 23.1 µM [inhibitor, single point]",
CCOC(=O)c1ccc(N2C(=O)CC(N3CCCC(C)C3)C2=O)cc1 (stereo not drawn),active: 12.6 µM,
CN(C)c1ccc(N=Nc2ccc(/C=C/c3ccnc4ccccc34)cc2)cc1,"inconclusive: 22.4 µM [inhibitor, partial curve, poor fit]",
COC(=O)c1ccn(-c2nc(-c3ccc(Cl)cc3)cc(C(F)(F)F)n2)n1,"inconclusive: 29.1 µM [inhibitor, single point]",
Cc1ccc(NC(=O)CN(C)C(=O)c2cc(-c3ccccc3)nn2-c2ccccc2)cc1,"inconclusive: 18.4 µM [inhibitor, single point]",
CCCc1nc2ccc(C)cn2c1Cc1ccccc1C(F)(F)F,"inconclusive: 29.1 µM [inhibitor, single point]",
O=C(NCc1cccnc1)C1c2ccccc2C(=O)N1C1CCCC1 (stereo not drawn),inactive,
O=C(Cn1c(=O)n(Cc2ccc(C(=O)NCc3ccc4c(c3)OCO4)cc2)c(=O)c2ccccc21)Nc1ccc(F)cc1F,inactive,
O=S(=O)(Nc1cc(S(=O)(=O)N2CCOCC2)ccc1O)c1ccc2c(c1)OCCCO2,"inconclusive: 20.6 µM [inhibitor, single point]",
O=C(O)c1ccc(Cl)cc1NC(=O)C1CCN(S(=O)(=O)c2cccs2)CC1,inactive,
NC(=O)c1nsc(C(=O)N(c2cccc(F)c2)C(C(=O)NCC2CCCO2)c2ccc3ncccc3c2)c1N (stereo not drawn),inactive,
COc1ccc(C2(N3CCN(c4cccc(C)c4C)CC3)C(=O)c3ccccc3C2=O)cc1,inactive,
Cc1ccc(S(=O)(=O)Nc2ccc3c(c2)OCCO3)cc1C,"inconclusive: 0.731 µM [inhibitor, full curve, poor fit]",
Cc1c(-c2nnc(SCC(=O)Nc3ccc(Br)cc3)o2)nnn1-c1ccc(F)cc1,"inconclusive: 16.4 µM [inhibitor, partial curve, poor fit]",
COc1ccc(C(=S)N2CCN(S(=O)(=O)c3ccccc3)CC2)cc1,"inconclusive: 20.6 µM [inhibitor, single point]",
COc1ccccc1/C=N/n1c(N)c(C(=O)NC2CCCCC2)c2nc3ccccc3nc21,"inconclusive: 18.4 µM [inhibitor, single point]",

SMILES,Potency,"activity change, negative = growth inhibition"
O=C(Nc1ccc2c(c1)OCO2)c1cc(C2CCCCN2C(=O)c2ccc(Cl)cc2)on1 (stereo not drawn),active: 20.6 µM,
CCOc1cccc(-n2nnnc2-c2ccc(OC)cc2)c1,active: 2.91 µM,
Cn1c(SCC(=O)Nc2ccc(Cl)cn2)nnc1C1CC1,inactive,
CN1CCc2nc(NC(=O)COc3ccc(C#N)cc3)sc2C1,"inconclusive: 32.6 µM [inhibitor, single point]",
COC(=O)[C@@]12C[C@@H](CC(=O)N3CCSCC3)C(=O)N(Cc3ccccc3)C1=CCC(C)(C)C2,inactive,
O=C(CS(=O)(=O)c1cccc2nsnc12)N1CCN(c2ccccc2)CC1,inactive,
O=C(NCc1ccccn1)C1CCC(=O)N(Cc2ccc(Cl)cc2)C1 (stereo not drawn),inactive,
CCCCn1c(SCC(=O)NC(=O)NCc2ccco2)nc2cc(S(N)(=O)=O)ccc21,inactive,
COCCn1c(SCC(=O)N2CCCc3ccccc32)nc2ccccc2c1=O,"inconclusive: 16.4 µM [inhibitor, partial curve, poor fit]",
Cc1ccccc1CS(=O)(=O)c1cnc2ccccc2n1,"inconclusive: 29.1 µM [inhibitor, single point]",
Cc1sc(NC(=O)c2ccc(F)cc2)c(CN2CCCCCC2)c1C,active: 13 µM,
O=C(NNc1nc(-c2ccccc2)c2cc(Br)ccc2n1)c1ccc(S(=O)(=O)N2CCCCC2)cc1,"inconclusive: 11.6 µM [inhibitor, partial curve]",
O=S(=O)(c1ccc(S(=O)(=O)N(Cc2ccccc2)Cc2ccco2)cc1)N1CCCC1,active: 14.6 µM,
O=C(N/N=C(\c1ccccc1)c1ccccn1)c1ccccc1Cl,"inconclusive: 0.461 µM [inhibitor, full curve, poor fit]",
CCC1=C2CC[C@H]3C(=O)N(CC)C(=O)[C@H]3[C@H]2[C@@]2(Cc3ccccc3)C(=O)N(Cc3ccccc3)C(=O)N2C1=O,"inconclusive: 29.1 µM [inhibitor, single point]",
Cc1ccc(C)c(NS(=O)(=O)c2ccc(OCC(=O)NCc3ccccn3)cc2)c1,inactive,
CCCCCc1nnc(NC(=O)c2cccc(S(=O)(=O)N3CCOCC3)c2)s1,inactive,
O=C(C[C@H]1C[C@H](C(=O)N2CCOCC2)[C@@]2(CCC3CCCC3)c3[nH]c4cc(-c5ccco5)ccc4c3CCN2C1=O)NCc1ccco1,"inconclusive: 29.1 µM [inhibitor, single point]",
COCCCNCCCCOc1c(Cl)cc(C)cc1Br,"inconclusive: 29.1 µM [inhibitor, single point]",
O=C(COc1ccc(Cl)cc1)NNC(=O)c1ccccn1,"inconclusive: 20.6 µM [inhibitor, single point]",
Cc1nnc(SCc2nnc(-c3ccccc3Br)o2)s1,inactive,
CCOC(=O)N1CCC2(CC1)CC(=O)c1c(ccc3oc(C(=O)O)c(C)c13)O2,inactive,
Cc1cc2c3c(c1)C1(SCC(=O)N1c1ccc(F)cc1)C(=O)N3C(C)(C)CC2C (stereo not drawn),"inconclusive: 29.1 µM [inhibitor, single point]",

SMILES,Potency,"activity change, negative = growth inhibition"
COc1ccc2[nH]c3c(c2c1)CCN1C(=O)C(CC(=O)NCCN2CCOCC2)C[C@H](C(=O)N2CCOCC2)[C@@]31CCC1CCCC1 (stereo partly drawn),"inconclusive: 20.6 µM [inhibitor, single point]",
Cc1ccc(C(=O)Nc2nc(-c3ccccn3)cs2)o1,active: 5.8 µM,
O=C(OCc1c(-c2ccccc2)ncc2ccccc12)N1CCOCC1,"inconclusive: 29.1 µM [inhibitor, single point]",
CC1CN(C(=O)CCNC(=O)c2ccccc2Cl)CC(C)O1 (stereo not drawn),inactive,
Cc1ccc(Nc2c([N+](=O)[O-])c(=O)oc3ccccc23)cc1C,"inconclusive: 29.1 µM [inhibitor, single point]",
C=CCn1c(SCc2c(C)noc2C)nnc1C1COc2ccccc2O1 (stereo not drawn),"inconclusive: 29.1 µM [inhibitor, single point]",
COc1cccc(C2C(C(=O)Nc3cccnc3)=C(C)Nc3nc(SCc4ccccc4)nn32)c1 (stereo not drawn),inactive,
Cc1ccc(C(C[N+](=O)[O-])n2nc(C)cc2C)cc1 (stereo not drawn),active: 2.06 µM,
CC(=O)c1c(C)[nH]c(C(=O)COC(=O)CCNS(=O)(=O)c2ccc(C)c(C)c2)c1C,,inconclusive: -33.2% [inhibitor]
COc1cccc(-c2nc(CS(=O)CC(=O)NCc3ccc4c(c3)OCO4)c(C)o2)c1 (stereo not drawn),"inconclusive: 20.6 µM [inhibitor, single point]",
COc1c(C)cc(Br)cc1C(=O)Nc1ccc(Cc2ccncc2)cc1,"inconclusive: 25.9 µM [inhibitor, partial curve]",
Cc1c(NS(=O)(=O)c2cc(C(=O)NCCN(C)C)ccc2Cl)c(=O)n(-c2ccccc2)n1C,inactive,
COC(=O)c1c(NC(=O)c2ccccc2OC)sc(C(=O)N2CCOCC2)c1C,"inconclusive: 29.1 µM [inhibitor, single point]",
COc1ccc(NC(=O)CSC2=Nc3ccccc3C3=NC(CCC(=O)NCc4ccco4)C(=O)N23)cc1 (stereo not drawn),active: 11.6 µM,
O=C(c1ccc(Cl)c(S(=O)(=O)N2CCCCC2)c1)N1CCN(Cc2ccccc2)CC1,"inconclusive: 29.1 µM [inhibitor, single point]",
O=C(Nc1cccc(C(F)(F)F)c1)c1cc2ncc(Br)cn2n1,inactive,
Cc1ccc2c(cnn2C(=O)CCCC(=O)NCc2cccc(F)c2)c1,"inconclusive: 23.1 µM [inhibitor, single point]",
COc1ccccc1N1CCN(CCCNC(=O)Cn2ncc3c([nH]c4ccccc43)c2=O)CC1,"inconclusive: 25.9 µM [inhibitor, single point] and inconclusive: 16.4 µM [inhibitor, partial curve, poor fit]",
CSc1ccc(S(=O)(=O)N2CCC(C(=O)N3CCc4ccccc4C3)CC2)cc1,"inconclusive: 29.1 µM [inhibitor, single point]",
COc1ccc(Cl)c2sc(N(CCN(C)C)C(=O)C3=COCCO3)nc12,inactive,
Cc1cc(NCC(c2ccccc2)c2ccccc2)n2ncnc2n1,"inconclusive: 29.1 µM [inhibitor, single point]",
Cc1cc2ccccc2n1CCNCc1c(C(=O)N2CCOCC2)nc2ccccn12,"inconclusive: 4.61 µM [inhibitor, partial curve]",
